# Measurements taken from PubChem BioAssay (Tox21).
# Inconclusive results are not listed. The call rests on the fitted dose curve; in most records, active means well fitted curve in the direction sought with a large enough effect in the repeat runs; inconclusive means weak or mixed curves; inactive means no such curve, though single readings can be large; an effect the other way counts as inactive or inconclusive. Some structures have more than one record in an assay (separate samples or runs), and their calls can disagree. Some entries of the source have several records that differ or are many. They are shown here; other results are not. The source may hold further records. Values given together are repeated measurements across runs, samples, wells, individuals or studies. Marks in square brackets tell the records apart. Letters count within one entry.
# How the values were obtained:
# [1] = A CellTox Green Cytotoxicity Assay to monitor cytotoxicity in HEK293 cells - 24 hour (AID 1224875); further: nearly all actives have a fitted effect of over 45% in size
# In short: (§1)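 Nonlytic real-time cytotoxicity: HEK293 + CellTox Green reagent plated, 5 h preincubation, pintool compound addition (23 nL in DMSO), 37 C for 40 h, fluorescence measured at successive time points.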
# [2] = A CellTox Green Cytotoxicity Assay to monitor cytotoxicity in HEK293 cells - 16 hour (AID 1224888); further: nearly all actives have a fitted effect of over 35% in size
# In short: as §1
# [3] = qHTS assay to identify small molecule agonists of the constitutive androstane receptor (CAR) signaling pathway - cell viability counter screen (AID 1224836); further: nearly all actives have a fitted effect of over 45% in size
# In short: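 Cells were seeded and incubated 4 hrs. Compounds were added across 15 concentrations together with PK11195 at 0.75 uM final. Plates were incubated 23 hrs at 37 C. CellTiter-Fluor was added and fluorescence measured.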
# [4] = qHTS assay to identify small molecule antagonists of the constitutive androstane receptor (CAR) signaling pathway - cell viability counter screen (AID 1224837); further: nearly all actives have a fitted effect of over 45% in size
# Source text: National Center for Advancing Translational Sciences [NCATS]
# NIH Chemical Genomics Center [NCGC]
# U.S. Environmental Protection Agency [EPA]
# National Institutes of Environmental Health Sciences [NIEHS]
# National Toxicology Program [NTP]
# U.S. Food and Drug Administration [FDA]
# The constitutive androstane receptor (CAR) is a nuclear receptor which regulates multiple drug metabolizing enzymes (DMEs) and transporters. Activating CAR will generally increase the transcription and subsequent translation of CYP2B6 and CYP3A4. These two DMEs represent about 50% of the drug metabolizing potential in the body. When CAR is deactivated, the metabolizing potential in the body will decrease, subsequently increasing the toxicity in the body or lowering the therapeutic potential of a pro-drug. Recently, there have also been studies performed indicating CARs role in energy metabolism and cancer therapy. Therefore, inhibiting CARs activity could have a potential effect on diabetes and cancer. […]
# A double-stable (hCAR and CYP2B6-2.2kb) transfected cell line, derived from human hepatoma (HepG2) cells, was utilized for the duration of the quantitative high-throughput screens. […] The fluorescence intensity in the plates was then measured using a ViewLux plate reader.
# [5] = qHTS assay to identify small molecule antagonists of the estrogen receptor alpha (ER-alpha) signaling pathway using the BG1 cell line in the presence of 0.1 nM 17-beta-estradiol - cell viability counter screen (AID 1259241); further: nearly all actives have a fitted effect of over 40% in size
# In short: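 Cells were plated and left 24 hr, compounds in DMSO were pinned in, 17beta-estradiol was added to 0.1 nM final, and after 22 hr CellTiter-Fluor reagent was added for 30 min before fluorescence was read.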
# [6] = qHTS assay to identify small molecule antagonists of the progesterone receptor (PR) signaling pathway - cell viability counter screen (AID 1346798); further: nearly all actives have a fitted effect of over 50% in size
# In short: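 Counter screen for cytotoxicity: viability of PR-UAS-bla HEK293T cells was measured with CellTiter-Glo luminescence following 16 hr compound exposure in the presence of R5020.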
# [7] = qHTS assay to identify small molecule antagonists of the TGF-beta/Smad signaling pathway - cell viability counter screen (AID 1346824); further: nearly all actives have a fitted effect of over 50% in size
# In short: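 Cytotoxicity counter-screen run in the same wells as the beta-lactamase Smad reporter read: CellTiter-Glo luminescence after 30 min at room temperature. HEK 293T SBE-bla cells had 5 hr compound exposure at 37 C with TGF-beta1 (0.25 ng/mL stock).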
# Potency means the concentration at half of the fitted maximal effect.
compound,measurement,setting,value
CCCCCCCCCCCC#N,Potency,[1],inactive [sample A] and active: 28.5 µM [sample B]
same,Potency,[2],inactive [sample A] and active: 45.2 µM [sample B]
CCC[N+](=O)[O-],Potency,[3],active: 16.9 µM [sample A] and inactive [sample B]
same,Potency,[4],active: 13.4 µM [sample A] and inactive [sample B]
same,Potency,[5],active: 26.8 µM [sample A] and inactive [sample B]
same,Potency,[6],active: 16.9 µM [sample A] and inactive [sample B]
O=NN1CCCC1,Potency,[3],active: 32.1 µM [sample A] and inactive [sample B]
same,Potency,[4],active: 45.3 µM [sample A] and inactive [sample B]
same,Potency,[6],active: 25.5 µM [sample A] and inactive [sample B]
C1CN2CCN1CC2,Potency,[1],inactive [sample A] and active: 21.9 µM [sample B]
same,Potency,[2],inactive [sample A] and active: 21.9 µM [sample B]
c1cc2c3c(cccc3c1)CC2,Potency,[1],inactive [sample A] and active: 49 µM [sample B]
same,Potency,[2],inactive [sample A] and active: 49 µM [sample B]
CCCN(CCC)c1c([N+](=O)[O-])cc(C(F)(F)F)cc1[N+](=O)[O-],Potency,[1],active: 1.55 µM [sample A] and inactive [sample B]
CCOP(=S)(OCC)SCCSCC,Potency,[7],active: 2.01 µM [sample A] and inactive [sample B]
CCCC1COC(Cn2cncn2)(c2ccc(Cl)cc2Cl)O1 (stereo not drawn),Potency,[1],active: 49.9 µM [sample A] and inactive [sample B]
C=CCO,Potency,[1],inactive [sample A] and active: 27.5 µM [sample B]
same,Potency,[2],inactive [sample A] and active: 27.5 µM [sample B]
